Publication PMC4336329 (PLoS ONE, 2015)
About 2,200 (0.71%) of roughly 310,000 compounds showed an effect of 50% or more. The effect is printed as a negative number. The list shows a part of the results.

Molecular target: human ether-à-go-go-related gene (hERG) potassium channel (human, UniProt Q12809)
Test: primary screen, population patch clamp on CHO cells stably expressing hERG

Chain of human ether-à-go-go-related gene (hERG) potassium channel (Q12809 whole entry, looked up): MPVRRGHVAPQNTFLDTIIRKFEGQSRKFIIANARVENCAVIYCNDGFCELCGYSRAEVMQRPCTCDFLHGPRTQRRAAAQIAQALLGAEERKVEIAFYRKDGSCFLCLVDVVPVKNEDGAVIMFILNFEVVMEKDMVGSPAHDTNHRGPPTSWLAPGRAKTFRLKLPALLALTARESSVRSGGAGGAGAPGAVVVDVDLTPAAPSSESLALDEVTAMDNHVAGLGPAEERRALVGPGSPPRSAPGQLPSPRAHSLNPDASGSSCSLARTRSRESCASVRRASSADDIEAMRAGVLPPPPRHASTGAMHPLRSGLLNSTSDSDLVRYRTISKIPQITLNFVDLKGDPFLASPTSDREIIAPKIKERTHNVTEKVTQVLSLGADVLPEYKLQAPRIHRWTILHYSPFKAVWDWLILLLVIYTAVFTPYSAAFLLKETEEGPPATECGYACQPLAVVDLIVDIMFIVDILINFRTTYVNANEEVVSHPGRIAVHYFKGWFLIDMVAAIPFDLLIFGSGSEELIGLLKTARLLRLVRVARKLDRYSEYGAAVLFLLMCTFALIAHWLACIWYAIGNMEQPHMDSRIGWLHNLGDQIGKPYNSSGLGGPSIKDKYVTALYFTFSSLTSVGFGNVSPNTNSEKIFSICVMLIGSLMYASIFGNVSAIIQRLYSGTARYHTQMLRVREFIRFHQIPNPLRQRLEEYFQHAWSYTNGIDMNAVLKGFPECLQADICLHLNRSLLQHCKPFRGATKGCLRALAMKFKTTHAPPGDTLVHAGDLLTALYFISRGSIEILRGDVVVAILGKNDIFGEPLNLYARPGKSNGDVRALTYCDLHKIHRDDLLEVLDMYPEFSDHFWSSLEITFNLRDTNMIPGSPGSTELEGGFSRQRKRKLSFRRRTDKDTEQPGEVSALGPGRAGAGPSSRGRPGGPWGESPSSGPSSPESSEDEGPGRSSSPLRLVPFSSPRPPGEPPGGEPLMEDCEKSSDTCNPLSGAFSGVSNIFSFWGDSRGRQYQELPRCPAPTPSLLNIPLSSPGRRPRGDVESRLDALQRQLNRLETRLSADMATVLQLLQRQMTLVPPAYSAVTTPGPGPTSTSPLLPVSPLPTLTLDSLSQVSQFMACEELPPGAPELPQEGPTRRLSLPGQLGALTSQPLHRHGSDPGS

Row | Compound | hERG current change (%, negative = inhibition) at 1uM
1 | O=C(O)c1ccc2c(c1)-c1nc3ccccc3n1C2=O | 14.6%
2 | O=C(CN(C(=O)CNC(=O)c1ccco1)c1ccc2c(c1)OCCO2)NC1CCCC1 | 8.83%
3 | COC(=O)CCCNC(=O)CCc1nnc(-c2ccc(-c3ccccc3)cc2)o1 | 10.2%
4 | Cc1cc(-c2ccc(S(=O)(=O)N3CCN(c4ccc(F)cc4)CC3)s2)on1 | 12%
5 | CCN(CCC(=O)Nc1cc([N+](=O)[O-])ccc1OC)Cc1ccccc1 | 4.85%
6 | CCNC(=O)N1CCC(n2nccc2NC(=O)CCOc2ccccc2)CC1 | 12.9%
7 | Cc1sc(NC(=O)C2=COCCO2)nc1-c1ccc(Cl)cc1 | 10.9%
8 | CCc1nn2c(=O)cc(COC(=O)c3cc(Cl)c(OC)c(OC)c3)nc2s1 | -26.3%
9 | C/C(Cl)=C/Cn1c(=O)c2c(nc(Br)n2Cc2ccccc2)n(C)c1=O | -1.21%
10 | COc1ccc(CCNC(=O)Cn2c(=O)[nH]c3ccsc3c2=O)cc1OC | 12.7%
11 | O=C(NCCc1cccc(F)c1)C1CCN(S(=O)(=O)c2ccc(F)cc2)CC1 | 11.2%
12 | CCO[C@@H]1OC(C(=O)Nc2ccccc2)=C[C@H](c2csc3ccccc23)[C@H]1CCCO | 2.71%
13 | CSc1nc(-c2ccc(C)cc2)nc(C(Cl)Cl)n1 | 6.45%
14 | Cc1c(C(=O)NN2CCOCC2)oc2ccccc12 | 3.89%
15 | COC(=O)c1sc2nc(CSc3nc4ccc(C)cc4[nH]3)[nH]c(=O)c2c1C | 14%
16 | CC(C)C[C@H](NC(=O)c1[nH]cnc1C(=O)Nc1ccc(CNC(=O)OC(C)(C)C)cc1)C(=O)OCc1ccccc1 | 13%
17 | N#C/C(=C\c1c(N2CCN(c3ccccc3)CC2)nc2ccccn2c1=O)C(N)=O | 8.18%
18 | CCC(CO)NC(=O)c1cc2c(s1)CCC2 (stereo not shown) | 1.86%
19 | O=C(CNC(=O)c1ccc(Br)cc1)NC1CC1 | 9.77%
20 | CCc1nc2ccc(C(=O)NCCc3ccc(OC)cc3)cc2nc1CC | 4.49%
21 | Cc1cccc(C)c1NC(=O)NC1(C(=O)N2CCCC2)CCCCC1 | 13.5%
22 | CCN(CC)C(=O)C1CCC(C)(C(=O)O)C1(C)C (stereo not shown) | 13%

Row | Compound | hERG current change (%, negative = inhibition) at 1uM
23 | CCCCC1=CC2=CC(=O)C(C)(OC(=O)c3ccco3)C(=O)C2=CO1 (stereo not shown) | 1.12%
24 | CCn1c(COc2cccc3ccccc23)nnc1SCC(N)=O | 9.97%
25 | C/C(=N\NC(=O)c1ccncc1)c1ccc(N(C)C)cc1 | 12.2%
26 | O=C(OCc1nnc(-c2ccccc2)o1)C1CCN(S(=O)(=O)c2cccs2)CC1 | 16.9%
27 | COc1ccc(C(=O)Nc2cccc(-c3nc4ncccc4o3)c2C)cc1 | 4.69%
28 | Cc1c(N/C=C/C(=O)c2ccc(Cl)cc2)c(=O)n(-c2ccccc2)n1C | 6.53%
29 | O=C(CSc1nnnn1-c1ccc(O)cc1)Nc1cccc(S(=O)(=O)N2CCCC2)c1 | 2.38%
30 | CCOC(=O)Cc1csc(NC(=O)c2sc3nc4cc(C)ccc4cc3c2N)n1 | 7.39%
31 | Cn1c(C(=O)N2CCCC(C(=O)NCc3ccc4c(c3)OCO4)C2)cc2sccc21 (stereo not shown) | -6.21%
32 | CCOC(=O)c1cc(C)sc1NC(=O)CN1CCN(C(=O)c2ccco2)CC1 | -14.7%
33 | Cc1ccc(S(=O)(=O)NC(=O)c2cc(C)n(CCCN3CCOCC3)c2C)cc1 | 16.5%
34 | Cc1cccc(N2CCN(S(=O)(=O)c3ccc4c(c3)CCN4C(=O)CCC(=O)O)CC2)c1C | 5.73%
35 | COc1ccc(CCN(C)Cc2ccncc2)cc1OC | -18%
36 | COc1ccc(C(=O)OCC(=O)Nc2ccccc2)cc1[N+](=O)[O-] | 9.05%
37 | CCCCNC(=O)Nc1ccccn1 | 11%
38 | COC(=O)c1cc(NC(=O)Cn2nc(C)n3cccc3c2=O)cc(C(=O)OC)c1 | 8.54%
39 | CC1CN(C(=O)c2cccs2)CCN1C(=O)c1cccs1 (stereo not shown) | 14.6%
40 | CC(C)(C)c1ccc(NC(=S)NCCc2ccccn2)cc1 | 10.4%
41 | O=C(/C=C/c1cc([N+](=O)[O-])ccc1OC(F)F)Nc1cccc([N+](=O)[O-])c1 | 15.8%
42 | CC(C)NC(=NCc1ccc(Cl)cc1Cl)Nc1ccccc1 | 5.58%
43 | O=C(c1ccccc1Br)N1N=C(c2ccccc2)CC1c1ccccc1F (stereo not shown) | 16.5%
44 | O=c1[nH]c(=S)[nH]c(O)c1N=Nc1ccc2c(c1)OCCO2 | 12.5%

Row | Compound | hERG current change (%, negative = inhibition) at 1uM
45 | CC(=O)Nc1c(NCC(C)C)c2ccccc2oc1=O | 14.7%
46 | O=C(NCC1CCCO1)c1nn2c(C(F)(F)F)cc(-c3cccs3)nc2c1Br (stereo not shown) | 0.26%
47 | O=C(N/N=C/c1ccc2nccnc2c1)c1ccccc1O | 13.6%
48 | CCOC(=O)CC1=C(C(=O)OCC)C(c2ccc(OC)c(OC)c2)C(C#N)=C(N)O1 (stereo not shown) | 2.42%
49 | COc1ccccc1C(=O)C1CCCN(C(=O)c2ccc(C(C)=O)s2)C1 (stereo not shown) | 13.3%
50 | Cc1ccc(Cl)cc1N1CCN(C(=O)Cn2ccc3ccccc3c2=O)CC1 | 14.2%
51 | COc1cc(NC(=O)CN2C(=O)COc3ccc(S(=O)(=O)N4CCOCC4)cc32)cc(OC)c1 | 5.32%
52 | COC(=O)/C=C1\S/C(=N/NC(=O)c2ccccc2)NC1=O | 11.1%
53 | CCOC(=O)c1ccc2nc(C)c(CC)c(Cl)c2c1 | 12.2%
54 | Cc1cc(OCC(=O)N(C)C2CCCCC2)cc(C)c1Cl | 14.5%
55 | COc1ccc(C2=CC3=C(Br)C(=O)C(C)(O)C(=O)C3=CO2)cc1 (stereo not shown) | 12.2%
56 | O=C(CCCOc1ccccc1)Nc1ccccc1C(F)(F)F | 3.68%
57 | Nc1c(C(=O)N/N=C/c2cccnc2)oc2nc(-c3ccccc3)cc(-c3ccco3)c12 | 10.9%
58 | COc1ccc(-n2nc(C(=O)NCC(=O)NCCCN3CCN(C)CC3)c3ccccc3c2=O)cc1 | 1.39%
59 | OCCN(CCO)c1ccc(C(c2ccccc2Cl)c2ccc(N(CCO)CCO)cc2Cl)c(Cl)c1 | 10.8%
60 | CCc1c(C#N)sc(C(N)=O)c1CC | 1.19%
61 | Cc1ccc(C2NC(=O)c3ccccc3N2)s1 (stereo not shown) | 6.42%
62 | Cn1ncc2c(Nc3ccccc3Cl)nc(Nc3ccccc3Cl)nc21 | 10.4%
63 | O=C(O)CSc1c[nH]c2ccccc12 | 7.93%
64 | COc1ccccc1CNC(=S)Nc1cc(C)ccc1C | 8.07%
65 | c1ccc2c(CSCc3nc4ccccc4[nH]3)cccc2c1 | -3.41%
66 | CC1=CN2C(=N)/C(=C\c3cn(CCCOc4ccccc4)c4ccccc34)C(=O)N=C2S1 | 8.13%

Row | Compound | hERG current change (%, negative = inhibition) at 1uM
67 | O=C(O)c1ccc(NC(=O)c2cccs2)cc1 | 12.6%
68 | CCOc1cc(C(=O)CCC(=O)OCC(=O)Nc2ccc(C)c(S(=O)(=O)N(C)C)c2)ccc1O | 9.83%
69 | COc1ccc(-c2ccccc2NC(=O)C2CCCN(Cc3ccc(C)o3)C2)cc1 (stereo not shown) | 11.7%
70 | CC1(C)CC(=O)c2cc(OCC(=O)NCCN3CCOCC3)ccc2O1 | 16.6%
71 | Cn1cc(CCC(=O)NC2CC2)c2ccccc21 | 5.81%
72 | CC1CCCN(C(=O)C2CCN(Cc3ccc4c(c3)OCO4)CC2)C1.O=C(O)C(=O)O (stereo not shown) | 11%
73 | CC(Oc1ccccc1)C(=O)NC1CCSc2ccccc21 (stereo not shown) | 7.69%
74 | Cc1ccc2c(c1)N(CC(=O)N1CCOCC1)C(=O)C(C)O2 (stereo not shown) | 11.7%
75 | CC(C)[C@H]1COC(NC2=N[C@@H](C(C)C)CO2)=N1 | 7.94%
76 | COc1ccc(NS(=O)(=O)c2cccc(C(=O)NNC(=O)CNC(=O)c3ccccc3F)c2)cc1 | -6.72%
77 | Cc1ccc(Cc2nnc(SCC(=O)Nc3ccccc3Cl)[nH]c2=O)cc1 | 1.62%
78 | CC(=O)Nc1ccc(N/C(=N\S(=O)(=O)c2ccccc2)c2ccccc2)cc1 | 11.7%
79 | COc1ccccc1N1CCN(CC(C)N(C(=O)C2CCCCC2)c2ccccn2)CC1 (stereo not shown) | 2.25%
80 | CCN(CC)c1ccc(NC(=O)CCc2nnc3ccc(N4CCCCC4)nn23)c(C)c1 | 1.63%
81 | O=C(O)c1cc(-c2ccc(Br)s2)nc2ccccc12 | 18.3%
82 | COc1ccc(OC)c(NC(=O)CNC(=O)c2cccs2)c1 | 12%
83 | CCCCN(C(=O)CC1CCCC1)c1c(N)n(CC(C)C)c(=O)[nH]c1=O | -18.7%
84 | CCOC(=O)C1(CCCc2ccccc2)CCN(C(=O)CN2CCOC2=O)CC1 | -3.4%
85 | Oc1oc(-c2ccccc2)nc1/C=N/c1ccccn1 | 11%
86 | CC(C)[C@H](NC(=O)[C@@H]1Cc2ccccc2CN1)C(=O)Nc1ccc2c(c1)OCCO2 | 3.13%
87 | O=C(CNC(=O)Cc1cccc2ccccc12)NCc1ccc(F)cc1 | 11.7%
88 | CCN(CC)CC(=O)Nc1sc(C)cc1C(=O)c1ccc(C)cc1 | 2.7%
